# Source: PubChem BioAssay AID485360 (National Center for Advancing Translational Sciences (NCATS), 2010)
# Values joined by “and” are separate entries in the source; they are usually repeats but may differ in a detail not shown here. Equal values may be shown once. Among all 230,000 compounds or so, about 1,500 (0.65%) were called active. Inconclusive results, whose numbers are uncertain, are shown with a selection of clear calls. Calls follow the shape of the dose curve; as a rule, active = well fitted inhibition curve with a large enough effect; inconclusive = small, poorly fitted or top-dose-only effect; inactive = no such curve, though single readings can be large or run the other way. A potency beside an inconclusive call is a rough fit, not a confirmed value.
# Target: Lethal(3)malignant brain tumor-like protein 1 (Homo sapiens) (UniProt Q9Y468)
# Assay: qHTS Assay for the Inhibitors of L3MBTL1; also: nearly all actives have a fitted effect of over 60% in size
# Conditions: AlphaScreen L3MBTL1–H3K9me1 peptide binding; activity, negative = inhibition: at 57.1 µM (top of the series)
# Procedure, shortened: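 AlphaScreen proximity signal between nickel-chelate acceptor and streptavidin donor beads (final 10 ug/mL) reports binding of 50 nM L3MBTL1 to 75 nM biotin-H3 K9me1 peptide; complex incubated with compounds 30 min at room temperature; cefsulodin titration as control.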
# % is scaled to controls: 0 for no effect and ±100 for the full control effect; potency is read from the fitted curve at half-maximal effect; tags tell the direction and shape of the fitted curve.
# Sequence of UniProt Q9Y468 (Q9Y468 whole entry, looked up): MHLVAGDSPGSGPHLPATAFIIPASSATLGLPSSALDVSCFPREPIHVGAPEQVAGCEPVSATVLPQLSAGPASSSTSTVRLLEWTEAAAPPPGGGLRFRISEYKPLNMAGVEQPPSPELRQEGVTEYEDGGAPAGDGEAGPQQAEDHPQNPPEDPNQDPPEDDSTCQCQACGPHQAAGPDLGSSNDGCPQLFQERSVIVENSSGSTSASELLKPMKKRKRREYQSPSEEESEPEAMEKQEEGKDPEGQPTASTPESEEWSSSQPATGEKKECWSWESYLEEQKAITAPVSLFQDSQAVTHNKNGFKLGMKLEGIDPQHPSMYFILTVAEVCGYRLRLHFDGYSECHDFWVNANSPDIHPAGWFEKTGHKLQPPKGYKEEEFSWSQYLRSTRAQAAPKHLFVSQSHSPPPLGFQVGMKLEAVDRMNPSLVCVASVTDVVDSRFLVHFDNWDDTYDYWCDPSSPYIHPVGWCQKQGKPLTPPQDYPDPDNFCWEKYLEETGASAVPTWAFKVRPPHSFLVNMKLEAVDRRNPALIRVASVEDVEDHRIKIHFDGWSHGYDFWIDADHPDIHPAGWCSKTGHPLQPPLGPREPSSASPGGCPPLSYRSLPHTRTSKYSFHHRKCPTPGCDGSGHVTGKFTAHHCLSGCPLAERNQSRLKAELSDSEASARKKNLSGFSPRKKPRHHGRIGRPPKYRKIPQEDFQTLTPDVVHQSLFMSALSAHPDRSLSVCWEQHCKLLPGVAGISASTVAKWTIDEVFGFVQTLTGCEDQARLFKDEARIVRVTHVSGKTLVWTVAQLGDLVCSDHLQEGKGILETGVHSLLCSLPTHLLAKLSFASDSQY
Structure (SMILES),Potency,"activity, negative = inhibition"
CCOC(=O)N1CCC(O)(c2cc(C)c(C)cc2C)CC1,"inconclusive: 0.708 µM [inhibitor, single point]",
Cc1ccc(OCCC(=O)OCC(=O)NC(=O)NC2CCCCC2)cc1,inactive,
O=C(COC(=O)c1ccccc1SCC(=O)NC1CCS(=O)(=O)C1)NC1CCS(=O)(=O)C1 (configuration not stated),inactive,
O=C(Cn1nc2ccccc2n1)N/N=C/c1cc([N+](=O)[O-])ccc1O,active: 7.94 µM,
Cc1noc(NS(=O)(=O)c2ccc(N/C=C\C(=O)c3ccccc3)cc2)c1C,inactive,
CCCOc1ccc(CSc2ncn[nH]2)cc1,"inconclusive: 4.47 µM [inhibitor, single point]",
COc1ccc(NC(=O)Cn2cc(S(=O)(=O)Cc3ccccc3)c3ccccc32)c(OC)c1,"inconclusive: 25.1 µM [inhibitor, single point]",
Cc1ccccc1CSc1nccn1-c1ccccc1,"inconclusive: 31.6 µM [inhibitor, partial curve]",
O=C(Nc1ccc2nc(-c3ccccc3)[nH]c2c1)c1ccco1,"inconclusive: 5.62 µM [inhibitor, single point]",
CC(C(=O)Nc1ccc([N+](=O)[O-])cc1Cl)N1CCN(S(=O)(=O)c2cccs2)CC1 (configuration not stated),inactive,
COc1cc2c(cc1OC)C(c1cc([N+](=O)[O-])ccc1O)NCC2 (configuration not stated),"inconclusive: 3.55 µM [inhibitor, partial curve]",
c1ccc2[nH]c(CSc3nc4ccccc4o3)nc2c1,"inconclusive: 4.47 µM [inhibitor, single point]",
CCCCC(c1nnnn1CS(=O)(=O)c1ccc(C)cc1)N1CCN(c2ccccc2)CC1 (configuration not stated),"inconclusive: 5.62 µM [inhibitor, single point]",
COc1ccc(/C=C/C(=O)O)cc1S(=O)(=O)NC1CCS(=O)(=O)C1 (configuration not stated),"inconclusive: 39.8 µM [inhibitor, single point]",
Cc1cc(C)c(N(CC(=O)NC(C)(C)C)C(=O)CNC(=O)c2cccs2)c(C)c1,"inconclusive: 39.8 µM [inhibitor, single point]",
CCOC(=O)C1CCN(C(=O)Nc2ccc(OC)c(OC)c2)CC1,"inconclusive: 6.31 µM [inhibitor, single point]",
Oc1c(Br)cc(Br)cc1CNc1cnc2ccccc2c1,inactive,
COCCOC(=O)/C(=C\c1cc(C(C)(C)C)c(O)c(C(C)(C)C)c1)C(C)=O,inactive,
Cn1cccc1/C=N/n1c(-c2ccco2)n[nH]c1=S,"inconclusive: 39.8 µM [inhibitor, single point]",
Oc1cc(-c2cccnc2)cc2cccnc12,active: 28.2 µM and active: 7.94 µM,
CN(CCO)c1ccc(C(C(=O)c2ccccc2)c2ccc(N(C)CCO)cc2)cc1,"inconclusive: 39.8 µM [inhibitor, single point]",
Clc1ccc(C(c2nnnn2C2CCCC2)N2CCN(Cc3ccncc3)CC2)cc1 (configuration not stated),inactive,
Cc1ccc(N=c2ssnc2Cl)cc1,inactive,

Structure (SMILES),Potency,"activity, negative = inhibition"
C[C@]12c3[nH]c4cc(-c5ccco5)ccc4c3CCN1C(=O)[C@@H](CC(=O)NCCC1=CCCCC1)C[C@@H]2C(=O)N1CCCCC1,"inconclusive: 31.6 µM [inhibitor, single point]",
CC(Oc1ccc(F)cc1)C(=O)Nc1nc(-c2ccccn2)cs1 (configuration not stated),"inconclusive: 28.2 µM [inhibitor, partial curve]",
O=C(Nc1nccs1)C1CCCN1S(=O)(=O)c1ccc(F)cc1 (configuration not stated),"inconclusive: 3.55 µM [inhibitor, partial curve]",
O=C(O)c1ccc(COc2ccccc2[N+](=O)[O-])o1,"inconclusive: 31.6 µM [inhibitor, single point]",
Cc1ncc(CO)c(/C=N/NC(=O)c2cc(O)c(O)c(O)c2)c1O,active: 1.58 µM,
O=C(CSc1nc(-c2ccccc2)cs1)Nc1ccccc1[N+](=O)[O-],"inconclusive: 39.8 µM [inhibitor, single point]",
CC(C)(CS(=O)(=O)[O-])NC(=O)CC[N+](C)(C)CCO,active: 3.55 µM,
CC(C)[C@@H]1NC(=O)c2cc([N+](=O)[O-])cc(I)c2NCC[C@@H](C(N)=O)NC(=O)[C@H](CO)NC1=O,inactive,
CCCCNC(=O)C1CCCN1C(=O)Nc1cccc(OC)c1 (configuration not stated),"inconclusive: 4.47 µM [inhibitor, single point]",
C=CCn1c(COc2ccc(F)cc2)nnc1SCC(=O)NC(=O)NCc1ccco1,"inconclusive: 39.8 µM [inhibitor, single point]",
CCOC(=O)N1CCN(CC(=O)Nc2sc(CC)cc2C(=O)c2ccc(OC)cc2)CC1,"inconclusive: 28.2 µM [inhibitor, partial curve]",
O=C(CSc1ncc(-c2ccc(F)cc2)n1Cc1ccco1)Nc1nccs1,"inconclusive: 10 µM [inhibitor, partial curve]",
Cc1ccc(S(=O)(=O)/N=C2/C=C(Sc3ncn[nH]3)C(=O)c3ccccc32)c(C)c1,"inconclusive: 31.6 µM [inhibitor, partial curve, poor fit]",
Cc1oc(-c2ccccc2F)nc1CN1CCC(C(=O)NC2CCCCCCC2)CC1,"inconclusive: 6.31 µM [inhibitor, single point]",
O=C(COc1ccc(Cl)cc1)OCC(=O)N1CCCCCC1,inactive,
CCCc1cc(=O)[nH]c(SCc2cc(=O)oc3cc(C)c(C(C)C)cc23)n1,inactive,
Cc1cc(/C=N/NC(=O)c2c(Br)cnn2C)c(C)n1-c1cccc(Br)c1,"inconclusive: 28.2 µM [inhibitor, single point]",
NC(=O)c1ccc[n+](Cc2ccccc2)c1,"inconclusive: 0.708 µM [inhibitor, single point]",
COC(=O)C1=C(C)N(c2cccc(OC)c2)C(=O)/C1=C\c1ccco1,"inconclusive: 14.1 µM [inhibitor, partial curve]",
O=C(Nc1nc(-c2ccccn2)cs1)C12CC3CC(CC(O)(C3)C1)C2,"inconclusive: 28.2 µM [inhibitor, partial curve]",
CC1CCCC(C)N1/N=C/C=C/c1ccccc1[N+](=O)[O-] (configuration not stated),"inconclusive: 10 µM [inhibitor, partial curve]",
O=[N+]([O-])c1ccc(Cl)cc1Sc1nc2ccccc2o1,"inconclusive: 15.8 µM [inhibitor, partial curve]",
C#CCOCCOCCOCCNc1nc(N2CCN(C(=O)[C@H](CCC(=O)O)n3cc([C@@H](N)[C@H](C)CC)nn3)CC2)nc(N2CCN(C(=O)[C@H](CCC(=O)O)n3cc([C@@H](N)CCSC)nn3)CC2)n1,"inconclusive: 39.8 µM [inhibitor, single point]",

Structure (SMILES),Potency,"activity, negative = inhibition"
CCN(CC)CCSc1nc(O)c(Cc2ccccc2)c(=O)n1-c1ccccc1,"inconclusive: 0.1 µM [inhibitor, full curve, poor fit]",
O=C(CSc1nc2ccccc2o1)NC1CCS(=O)(=O)C1 (configuration not stated),inactive,
O=C(Nc1nncs1)c1cc(-c2ccco2)nc2ccccc12,"inconclusive: 39.8 µM [inhibitor, single point]",
Cc1ccc(/C=N/n2c(-c3cccnc3)n[nH]c2=S)s1,inactive,
Cc1ccc(OCC(=O)c2cc(C)n(C)c2C)c([N+](=O)[O-])n1,"inconclusive: 31.6 µM [inhibitor, partial curve]",
CC(=O)c1ccc(S(=O)(=O)N(C)CC(=O)Nc2cc(C)on2)cc1,"inconclusive: 35.5 µM [inhibitor, single point]",
Cc1ccn2c(=O)nc(SCC(=O)c3ccccc3)nc2c1,"inconclusive: 31.6 µM [inhibitor, partial curve]",
Oc1ccc(CNc2ccccc2)c2cccnc12,"inconclusive: 35.5 µM [inhibitor, single point]",
O=C1O/C(=C/c2ccccc2)c2ccccc21,inactive,
COc1cc(CNc2ccc(N3CCCC3)cc2)cc(Cl)c1OC,"inconclusive: 11.2 µM [inhibitor, partial curve]",
O=c1c2cc(N3CCOCC3)ccc2[nH]c(=S)n1Cc1ccccn1,,inactive: -14.9% [at 11.4 µM]
O=C(c1cc2ncc(Br)cn2n1)N1CCN(C(=O)c2ccco2)CC1,"inconclusive: 28.2 µM [inhibitor, single point]",
COc1cc(OC)cc(-c2c(-c3cccs3)c3cc(-c4ccn[nH]4)ccc3n2C)c1,"inconclusive: 31.6 µM [inhibitor, single point]",
NC(=O)C1CCN(C(=O)CCSc2ccc(Cl)cc2)CC1,"inconclusive: 0.794 µM [inhibitor, single point]",
O=C(COc1cccc(C(F)(F)F)c1)NCC(c1ccco1)N1CCCC1 (configuration not stated),"inconclusive: 3.98 µM [inhibitor, single point]",
N#Cc1nc(COc2ccc(F)cc2)oc1N1CCC(Cc2ccccc2)CC1,"inconclusive: 10 µM [inhibitor, partial curve]",
COc1ccc(N2CCN(c3nc(Nc4ccc(F)cc4)nc(OC)n3)CC2)cc1,inactive,
O=C(N/C(=C/c1cccc(Br)c1)c1nc(=S)[nH][nH]1)c1ccccc1,"inconclusive: 5.62 µM [inhibitor, single point]",
Cc1ccc(NC(=O)CN(C)C(=O)c2cccc(S(=O)(=O)NCc3ccco3)c2)cc1,"inconclusive: 0.708 µM [inhibitor, full curve, poor fit]",
CC/C=C\C/C=C\C/C=C\CCCCCCCC(=O)O,"inconclusive: 31.6 µM [inhibitor, single point]",
NS(=O)(=O)c1cccc(NC(=O)CCSc2ccc(Cl)cc2)c1,inactive,
